IC50 data for ten molecules are collected here from patent US11618753B2 (priority 2018, dated 2023).

The subject of this assay is MLKL phosphorylation, HT29-L23 human colorectal adenocarcinoma cells. Nature of the assay: cells. To be noted: read-out: pMLKL HCS Cell Assay (IC50, uM).
Take `COc1ncc(-c2cc(C(F)(F)F)c3c(N)ncnn23)cc1C(=O)N[C@@H]1CN(C(=O)OC2CC2)C[C@@H]1F` [Example 1447, cyclopropyl (3R,4S)-3-{5-[4-amino-5-(trifluoromethyl)pyrrolo[2,1-f][1,2,4]triazin-7-yl]-2-methoxypyridine-3-amido}-4-fluoropyrrolidine-1-carboxylate]: the IC50 was 0.0075 µM.
With `Nc1ncnn2c(-c3ccc(Cl)c(C(=O)N[C@@H]4CN(C(=O)C5CC(F)C5)C[C@@H]4F)c3)cc(C(F)(F)F)c12` (stereo partly drawn) [Example 925, 5-[4-amino-5-(trifluoromethyl)pyrrolo[2,1-f][1,2,4]triazin-7-yl]-2-chloro-N-[(3R,4S)-4-fluoro-1-(3-fluorocyclobutanecarbonyl)pyrrolidin-3-yl]benzamide], the half-inhibitory concentration (IC50) came to 0.0051 µM.
The result for `Nc1ncnn2c(-c3cc(F)cc(C(=O)N[C@@H]4CN(C(=O)CC(F)(F)F)C[C@@H]4F)c3)cc(C(F)(F)F)c12` [Example 603, 3-[4-amino-5-(trifluoromethyl)pyrrolo[2,1-f][1,2,4]triazin-7-yl]-5-fluoro-N-[(3R,4S)-4-fluoro-1-(3,3,3-trifluoropropanoyl)pyrrolidin-3-yl]benzamide] reads 0.095 µM; that for `CNc1ccc(-c2cc(C(F)(F)F)c3c(N)ncnn23)cc1C(=O)N[C@@H]1CN(C(=O)C2CC(F)(F)C2)C[C@@H]1F` [Example 566, 5-(4-amino-5-(trifluoromethyl)pyrrolo[2,1-f][1,2,4]triazin-7-yl)-N-((3R,4S)-1-(3,3-difluorocyclobutane-1-carbonyl)-4-fluoropyrrolidin-3-yl)-2-(methylamino)benzamide], 0.031 µM.
For `Cc1ccc(-c2cc(C(F)(F)F)c3c(N)ncnn23)cc1C(=O)N[C@@H]1CN(C(=O)c2ccccc2Cl)C[C@@H]1F` [Example 1020, 5-[4-amino-5-(trifluoromethyl)pyrrolo[2,1-f][1,2,4]triazin-7-yl]-N-[(3R,4S)-1-(2-chlorobenzoyl)-4-fluoropyrrolidin-3-yl]-2-methylbenzamide] the value was 0.0076 µM.
For `COc1ncc(-c2cc(C(F)(F)F)c3c(N)ncnn23)cc1C(=O)NCc1ccccc1Oc1ccccc1` [Example 1352, 5-[4-amino-5-(trifluoromethyl)pyrrolo[2,1-f][1,2,4]triazin-7-yl]-2-methoxy-N-[(2-phenoxyphenyl)methyl]pyridine-3-carboxamide], the half-maximal inhibitory concentration (IC50) worked out at 0.073 µM.
`COc1ncc(-c2cc(C(F)(F)F)c3c(N)ncnn23)cc1C(=O)N[C@@H]1CN(S(=O)(=O)Cc2ccccc2)C[C@@H]1F` [Example 1472, 5-[4-amino-5-(trifluoromethyl)pyrrolo[2,1-f][1,2,4]triazin-7-yl]-N-[(3R,4S)-4-fluoro-1-phenylmethanesulfonylpyrrolidin-3-yl]-2-methoxypyridine-3-carboxamide]: the half-inhibitory concentration (IC50) was determined as 0.0032 µM.
In the case of `COc1ncc(-c2cc(C)c3c(N)ncnn23)cc1C(=O)NCC[C@H](O)c1ccc(Cl)cc1` [Example 38, 5-{4-amino-5-methylpyrrolo[2,1-f][1,2,4]triazin-7-yl}-N-[(3S)-3-(4-chlorophenyl)-3-hydroxypropyl]-2-methoxypyridine-3-carboxamide], the half-inhibitory concentration (IC50) stood at 0.0084 µM.
The result for `COc1ncc(-c2cc(C(F)(F)F)c3c(N)ncnn23)cc1C(=O)N[C@@H]1CN(C(=O)C(C)(C)n2cnc(C(F)(F)F)c2)C[C@@H]1F` [Example 1674, 5-(4-amino-5-(trifluoromethyl)pyrrolo[2,1-f][1,2,4]triazin-7-yl)-N-((3R,4S)-4-fluoro-1-(2-methyl-2-(4-(trifluoromethyl)-1H-imidazol-1-yl)propanoyl)pyrrolidin-3-yl)-2-methoxynicotinamide] reads 0.051 µM; that for `Cc1ccc(-c2cc(C(F)(F)F)c3c(N)ncnn23)cc1C(=O)N[C@@H]1CN(C(=O)CC(C)C)C[C@@H]1F` [Example 991, 5-[4-amino-5-(trifluoromethyl)pyrrolo[2,1-f][1,2,4]triazin-7-yl]-N-[(3R,5S)-4-fluoro-1-(3-methylbutanoyl)pyrrolidin-3-yl]-2-methylbenzamide], 0.0014 µM.

The IC50 is the concentration needed to halve the response being measured.
